Experimental data reported in the supplement of paper PMC11383711.
The list shows a part of the results. Binding of human antibodies (heavy:light variable regions, tested as scFv in one mRNA-display pool) to influenza hemagglutinin, with or without the stem antibody CR9114 bound first. Score = (mean enrichment − median) / interquartile range of that screen; higher = more enriched, 0 = typical non-binder. Active = above the paper's cut-off per screen: stems 28; unblocked H1 Solomon Islands 5, H1 Michigan 3, H3 5, H5 19, H7 2.85, both B 5; blocked 9, 7, H5 10, H7 10, B Phuket 10, B Lee 11.5. Scores are scaled within each screen and are no affinities; replicates correlate at about 0.6 to 0.9, and antibodies rare in the pool are noisier.

B1: antibody 3E01 (protein)
chain 1: VQLVQSGAEVKKPGASVKVSCKTSGYTFTIYEINWVRQATGQGLEWMGTMNPNSATTGSAQKFQGRLTMTGNTSLRTTYMELSSLTSEDTAVYYCARLVSCGGDCYYFDSWGQGTLVTVSS
chain 2: SYELTQAPSVSVAPGQTARIPCGGNNIGTKSVHWYQQRPGQAPVLVVYDDSDRPSGIPERFSGSNSGNTATLTISRVEAGDEADYYCQVWDSSGDQFGGGTKLTVL
B2: antibody 2B03 (protein)
chain 1: QVQLQESGPGLVKPSQTLSLTCTVSGASVGSGTYYWTWIRQRPGTGLEWIGYIYDSGTTYYNPSLRSRLIISSDTSTNHFSLNLKSVTAADTAVYYCARVGHGDYVGYLDYWGQGILVTVSS
chain 2: SYELTQPLSVSVALGQTARITCGGSNIGSKNVHWYQQKPGQAPILAIYRDNNRPSGIPERFSGSNSGNTATLIISRAQAGDEADYYCQVWDTSIAVVFGGGTKLTVL
B3: 56.j.01 (protein)
chain 1: QVQLVQSGAEMKKPGASVKVSCKASGYTFTNYYIHWMRQAPAQGLEWMGIINPSDDSTTYAQRFQGRVTMTSDTSTSTVYMELSSLRSEDTAVYYCAKLGYWTDDYWGQGTLVTVSS
chain 2: DIQMTQSPSSLSASVGDRVTITCRASQGIGNYLAWYQQKPGKVPKLLIFAASTLQSGVPSRFSGSGSGTDFTLTISSLQPEDVATYYCQIFNSALGPLTFGGGTKVEI
B4: antibody 3F05 (protein)
chain 1: VQLVESGGGVVQPGRSLRLSCAASGFTFMSYNIHWFRQAPGKDLQWVAVVWYEGSTKFYGDSVKGRLTISRDNSKDMVYLQMNNLRAEDTAIYYCAREAVSPGPDDIYFGMDVWGHGTTVTVSS
chain 2: EIVLTQSPATLSLSPGERATLSCRASQSVGSYLAWYQQKPGQAPRLLIYDVSNRATGIPARFIGSGSGTDFTLTISSLEPEDSAVYYCQQRSNWPPGVTFGPGTKVDIK
B5: R95-2A04 (protein)
chain 1: QVQLEQSGAEVKKPGASMKVSCKTSGYSFNAYFIHWVRQAPGQGLEWMGRINPTSGGTDYAQRFQDRVTMTRDTSINTAYMELSRLKSDDSALYYCTRALYYDSIAYYFDYWGRGTLVTVSS
chain 2: SYELTQPPSVSVSPGQTASITCSGDELGKKYACWYQQKPGQSPAMVIYGDNKRPSGIPERFSGSNSGDTATLTISGTQAVDEAGYYCQTWDSRTAVFGTGTKV
B6: antibody 3G01 (protein)
chain 1: VQLVESGGGVVQPGRSLRLSCAASGFTFGSYGMHWVRQAPGKGLEWVSVIYYDGRNKYYADSVKGRFTISRDNLKNTLYLQMNSLRAEDTAVYYCARDHNSYHYFDYWGRGTLVTVSS
chain 2: NFMLTQPRSVSGSPGETVTISCTSSGRIVSGYVQWCQQRPGSAPITVIYESDQRPSGVPNRFSGSIDSSSQSASLTISGLETEDEADYYCQSSDRDNQGIFGGGTRLTVL
B7: R95-2E02 (protein)
chain 1: EVQLVESGGGLIQPGGSLRLSCTASGFTFHDHAMHWVRQPPGKGLEWVSGISWNGGDMKYGGSVKGRFITSRDNGKKSLYLQMNSLRPEDTAVYYCAKEISVRYYDFWSGYLGKPRGMDVWGQGTTVTVSS
chain 2: QSVLTQPPAASGTPGQTVNITCSGSPSNIGSETVNWYQRLPGTAPKLLIYSSNQRPSGVPDRFSGSKYGTSASLVISGLQSEDEGDYYCAVWDESRNGFYVFGTGTKVTVL

target: Influenza A H1N1 A/Michigan/45/2015 hemagglutinin ectodomain; assay: mRNA display binding score; higher = more enriched on the antigen; settings: antigen blocked with: 2 µM CR9114 IgG
Procedure: (§1)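 A pool of natively paired antibodies, displayed as scFv on mRNA, was selected once on antigen-coated beads and sequenced before and after; two replicates.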

Binder | mRNA display binding score
B1 | inactive: -0.0717
B2 | active: 34.9
B3 | inactive: 0.378
B4 | inactive: 1.52
B5 | inactive: -0.00823
B6 | inactive: -0.119
B7 | inactive: -0.301

same assay, conditions: antigen blocked with: nothing

Binder | mRNA display binding score
B1 | inactive: -0.255
B2 | inactive: 2.9
B3 | inactive: 0.254
B4 | inactive: 0.444
B5 | inactive: -0.0146
B6 | inactive: 0.524
B7 | inactive: -0.337

target: Influenza A H1N1 A/Solomon Islands/3/2006 hemagglutinin ectodomain; assay: as above; settings: antigen blocked with: 2 µM CR9114 IgG
Procedure: as §1

Binder | mRNA display binding score
B1 | inactive: -0.036
B2 | inactive: 0.354
B3 | inactive: 0.365
B4 | inactive: 0.713
B5 | inactive: -0.44
B6 | inactive: -0.256
B7 | inactive: -0.598

same assay, conditions: antigen blocked with: nothing

Binder | mRNA display binding score
B1 | inactive: -0.135
B2 | inactive: 0.242
B3 | inactive: 0.513
B4 | inactive: 0.189
B5 | inactive: -0.245
B6 | inactive: -0.266
B7 | inactive: -0.234

target: Influenza A H3N2 A/Singapore/INFIMH-16-0019/2016 hemagglutinin ectodomain; assay: as above; settings: antigen blocked with: nothing
Procedure: as §1

Binder | mRNA display binding score
B1 | inactive: -0.203
B2 | inactive: 0.487
B3 | active: 9.95
B4 | inactive: -0.016
B5 | inactive: 0.432
B6 | inactive: 0.15
B7 | inactive: -0.111

target: Influenza A H5N1 A/Qinghai/1A/2005 hemagglutinin ectodomain; assay: as above; settings: antigen blocked with: 2 µM CR9114 IgG
Procedure: as §1

Binder | mRNA display binding score
B1 | inactive: -0.0314
B2 | inactive: 0.36
B3 | inactive: 0.421
B4 | inactive: 0.434
B5 | inactive: 0.302
B6 | inactive: -0.061
B7 | inactive: -0.57

same assay, conditions: antigen blocked with: nothing

Binder | mRNA display binding score
B1 | inactive: -0.27
B2 | inactive: 0.419
B3 | inactive: 0
B4 | inactive: -0.141
B5 | inactive: 0.883
B6 | inactive: 1.04
B7 | inactive: -0.0991

target: Influenza A H7N9 A/Shanghai/2/2013 hemagglutinin ectodomain; assay: as above; settings: antigen blocked with: 2 µM CR9114 IgG
Procedure: as §1

Binder | mRNA display binding score
B1 | inactive: -0.568
B2 | inactive: 0.113
B3 | inactive: 0.546
B4 | inactive: 0.872
B5 | inactive: -0.278
B6 | inactive: 1.12
B7 | inactive: -0.708

same assay, conditions: antigen blocked with: nothing

Binder | mRNA display binding score
B1 | inactive: -0.285
B2 | inactive: 1.29
B3 | inactive: 0.532
B4 | inactive: 0.452
B5 | inactive: 0.0336
B6 | inactive: 0.959
B7 | inactive: -0.383

target: Influenza B/Lee/1940 hemagglutinin ectodomain; assay: as above; settings: antigen blocked with: 2 µM CR9114 IgG
Procedure: as §1

Binder | mRNA display binding score
B1 | inactive: -0.11
B2 | inactive: -0.641
B3 | inactive: -0.264
B4 | inactive: -0.12
B5 | inactive: -0.24
B6 | inactive: 0.359
B7 | inactive: -0.136

same assay, conditions: antigen blocked with: nothing

Binder | mRNA display binding score
B1 | inactive: -0.295
B2 | inactive: 0.172
B3 | inactive: -0.0789
B4 | inactive: 0.0697
B5 | active: 10.8
B6 | inactive: 3.24
B7 | inactive: -0.416

target: Influenza B/Phuket/3073/2013 hemagglutinin ectodomain; assay: as above; settings: antigen blocked with: 2 µM CR9114 IgG
Procedure: as §1

Binder | mRNA display binding score
B1 | inactive: -0.218
B2 | inactive: 0.198
B3 | inactive: 0.548
B4 | inactive: 0.0956
B5 | inactive: 1.96
B6 | inactive: 5.76
B7 | inactive: -0.547

same assay, conditions: antigen blocked with: nothing

Binder | mRNA display binding score
B1 | inactive: -0.212
B2 | inactive: -0.0136
B3 | inactive: 0.17
B4 | inactive: -0.0301
B5 | active: 6.09
B6 | active: 16.6
B7 | inactive: -0.336
